This note sets out measurements from publication PMC11995724, “Antibiotic target discovery by integrated phenotypic and activity-based profiling of electrophilic fragments” (Cell chemical biology, 2025).

The structures appear in SMILES notation. In all, about 3,200 compounds went through this assay and about 75 (2%) showed an effect of 50% or more. Some of the results follow.

The test deals with T1, S. aureus MSSA476.
T1 construct: MSSA476
Also on record: species or system S. aureus MSSA476 (TSB) or V. cholerae SAD30 (LB); 384-well bacterial growth screen at 25 uM, OD600 relative to DMSO control. As to conditions: relative growth, OD600, TSB; 25 µM; inhibitor.
Turning to `C=CC(=O)N1CCC(C(=O)N2CCN(CC(C)C)C(=O)C2C)CC1` (stereo not drawn) [2-B08, 3-methyl-1-(2-methylpropyl)-4-[1-(prop-2-enoyl)piperidine-4-carbonyl]piperazin-2-one], the “% of control remaining” value turned out to be 92.6023%.

Consider `CCCn1c(N)c(C(=O)CCl)c(=O)[nH]c1=O` [10-L10, 6-amino-5-(2-chloroacetyl)-1-propyl-1,2,3,4-tetrahydropyrimidine-2,4-dione], for which the “% of control remaining” value came to 109.063%.

On to `O=C(CCl)Nc1cc(S(=O)(=O)N2CCOCC2)ccc1O` [6-J12, 2-chloro-N-[2-hydroxy-5-(morpholine-4-sulfonyl)phenyl]acetamide], for which the “% of control remaining” value amounted to 85.7073%. On to `C=CC(=O)N1CCC(c2nc(C3CC3)no2)C1` (stereo not drawn) [2-E09, 1-[3-(3-cyclopropyl-1,2,4-oxadiazol-5-yl)pyrrolidin-1-yl]prop-2-en-1-one], for which the “% of control remaining” value was determined as 98.1723%. For the compound `O=C(CCl)NCc1cnn(-c2ccccc2)n1` [6-J03, 2-chloro-N-[(2-phenyl-2H-1,2,3-triazol-4-yl)methyl]acetamide], the “% of control remaining” value is 92.5366%. Turning to `CC1CCCCC1NC(=O)CCl` (stereo not drawn) [6-C10, 2-chloro-N-(2-methylcyclohexyl)acetamide], the “% of control remaining” value amounted to 80.9268%. Regarding `C=CC(=O)N1CCC(c2cnn(C)c2)CC1` [2-I10, 1-[4-(1-methyl-1H-pyrazol-4-yl)piperidin-1-yl]prop-2-en-1-one], the “% of control remaining” value is 104.439%. On to `CC(C)NC(=O)C(C#N)=Cc1ccc(C#N)cc1` [9-M11, 2-cyano-3-(4-cyanophenyl)-N-(propan-2-yl)prop-2-enamide], for which the “% of control remaining” value was found to be 106.367%. On to `Cc1ccc(C=C(C#N)C(=O)NCc2ccco2)o1` [8-P19, 2-cyano-N-[(furan-2-yl)methyl]-3-(5-methylfuran-2-yl)prop-2-enamide], for which the “% of control remaining” value was determined as 89.6266%. Take `CC(Cl)C(=O)N1CC=C(C(F)(F)F)CC1` (stereo not drawn) [5-J19, 2-chloro-1-[4-(trifluoromethyl)-1,2,3,6-tetrahydropyridin-1-yl]propan-1-one]: the “% of control remaining” value was found to be 109.654%. With `C=CC(=O)NC1CCC(OCc2cc(C)no2)CC1` (stereo not drawn) [1-M08, N-{4-[(3-methyl-1,2-oxazol-5-yl)methoxy]cyclohexyl}prop-2-enamide] the figure was 100.571%. With `C=CC(=O)Nc1ccccc1Cl` [1-O10, N-(2-chlorophenyl)prop-2-enamide] the figure was 122.725%. As for `C=CC(=O)N(CC)CC(=O)N1CCCC(c2nccn2C)C1` (stereo not drawn) [3-F03, N-ethyl-N-{2-[3-(1-methyl-1H-imidazol-2-yl)piperidin-1-yl]-2-oxoethyl}prop-2-enamide], the figure is 121.898%; as for `NS(=O)(=O)c1cccc2cc(NC(=O)CCl)ccc12` [5-K16, 2-chloro-N-(5-sulfamoylnaphthalen-2-yl)acetamide], 102.732%. Consider `CC(Cl)C(=O)NC1CCN(S(C)(=O)=O)C1` (stereo not drawn) [7-I15, 2-chloro-N-(1-methanesulfonylpyrrolidin-3-yl)propanamide], for which the “% of control remaining” value was determined as 89.4819%.

Regarding `Cn1cccc1C(=O)CCl` [10-B04, 2-chloro-1-(1-methyl-1H-pyrrol-2-yl)ethan-1-one], the “% of control remaining” value was 122.188%. For the compound `CC(=O)c1ccc(NC(=O)CCl)cc1` [4-G07, N-(4-acetylphenyl)-2-chloroacetamide], the “% of control remaining” value worked out at 93.7589%. Regarding `N#CC(=Cc1cn2cc(Cl)ccc2n1)C(=O)NC1CCCC1` [9-P15, 3-{6-chloroimidazo[1,2-a]pyridin-2-yl}-2-cyano-N-cyclopentylprop-2-enamide], the “% of control remaining” value worked out at 106.067%. With `C=CC(=O)NCCNS(=O)(=O)c1cc(C)ccc1F` [2-L11, N-[2-(2-fluoro-5-methylbenzenesulfonamido)ethyl]prop-2-enamide] the figure was 119.06%; with `O=C(CCl)Cc1cccc(F)c1` [10-C11, 1-chloro-3-(3-fluorophenyl)propan-2-one], 113.437%; with `N#CC(=Cc1cccc(F)c1F)C(=O)NCc1ccccc1` [8-B06, N-benzyl-2-cyano-3-(2,3-difluorophenyl)prop-2-enamide], 77.0124%. Take `C=CC(=O)Nc1cc(CC(C)(C)C)no1` [1-I19, N-[3-(2,2-dimethylpropyl)-1,2-oxazol-5-yl]prop-2-enamide]: the “% of control remaining” value is on record as 109.011%. In the case of `N#CC(=Cc1ccco1)C(=O)NC1CC1` [8-N21, 2-cyano-N-cyclopropyl-3-(furan-2-yl)prop-2-enamide], the “% of control remaining” value was 111.867%. `N#Cc1cc([N+](=O)[O-])ccc1NC(=O)CCl` [4-O09, 2-chloro-N-(2-cyano-4-nitrophenyl)acetamide]: the “% of control remaining” value is recorded as 100.619%. Take `COC(=O)c1c(C(=O)CCl)c(C)n(C(C)C)c1C` [10-K21, methyl 4-(2-chloroacetyl)-2,5-dimethyl-1-(propan-2-yl)-1H-pyrrole-3-carboxylate]: the “% of control remaining” value is 119.375%. With `O=C(CCl)NCC1CCCCN1C(=O)C(F)(F)F` (stereo not drawn) [5-C07, 2-chloro-N-{[1-(2,2,2-trifluoroacetyl)piperidin-2-yl]methyl}acetamide] the figure was 98.3607%. Consider `CN1C=C(C(F)(F)F)C=CC1=C(C#N)C(=O)Nc1ccccc1F` [8-H20, 2-cyano-N-(2-fluorophenyl)-2-[1-methyl-5-(trifluoromethyl)-1,2-dihydropyridin-2-ylidene]acetamide], for which the “% of control remaining” value was 90.2905%.

Take `C=CC(=O)Nc1ccccc1-n1nccn1` [3-H10, N-[2-(2H-1,2,3-triazol-2-yl)phenyl]prop-2-enamide]: the “% of control remaining” value is recorded as 111.45%. For `O=C(CCl)Nc1ccccc1F` [4-M16, 2-chloro-N-(2-fluorophenyl)acetamide], the “% of control remaining” value is listed as 111.291%. Regarding `Cc1cc(CO[C@H]2CC[C@H](NC(=O)CCl)CC2)on1` [6-K19, 2-chloro-N-[(1r,4r)-4-[(3-methyl-1,2-oxazol-5-yl)methoxy]cyclohexyl]acetamide], the “% of control remaining” value came to 95.6098%. With `Cc1cc(C(=O)CCl)c(C)n1-c1ccc2c(c1)OCO2` [10-K14, 1-[1-(1,3-dioxaindan-5-yl)-2,5-dimethyl-1H-pyrrol-3-yl]-2-chloroethan-1-one], the “% of control remaining” value was determined as 139.375%. `Cc1cc(C)c(NC(=O)C(C)Cl)c(Cl)c1` (stereo not drawn) [6-E10, 2-chloro-N-(2-chloro-4,6-dimethylphenyl)propanamide]: the “% of control remaining” value is recorded as 91.1707%. With `CC(Cl)C(=O)N1CCCC(c2cnn(C)c2)C1` (stereo not drawn) [7-M16, 2-chloro-1-[3-(1-methyl-1H-pyrazol-4-yl)piperidin-1-yl]propan-1-one], the “% of control remaining” value is 82.5746%.

For `C=CC(=O)Nc1cccc2c1CCN2C(C)=O` [1-F05, N-(1-acetyl-2,3-dihydro-1H-indol-4-yl)prop-2-enamide], the “% of control remaining” value is recorded as 108.308%. As for `O=C(CCl)NCCS(=O)(=O)N1CCc2ccccc21` [6-H04, 2-chloro-N-[2-(2,3-dihydro-1H-indole-1-sulfonyl)ethyl]acetamide], the “% of control remaining” value turned out to be 86.0488%. In the case of `N#CCCSc1ccccc1NC(=O)CCl` [6-N12, 2-chloro-N-{2-[(2-cyanoethyl)sulfanyl]phenyl}acetamide], the “% of control remaining” value is on record as 88.439%. For `C=CC(=O)N1CCOC(c2nccs2)C1` (stereo not drawn) [3-H09, 1-[2-(1,3-thiazol-2-yl)morpholin-4-yl]prop-2-en-1-one], the “% of control remaining” value is 127.471%. As to `C=CC(=O)NCc1noc(-c2cccs2)n1` [3-H15, N-{[5-(thiophen-2-yl)-1,2,4-oxadiazol-3-yl]methyl}prop-2-enamide], the “% of control remaining” value was 78.7114%.

Turning to `C=CC(=O)N1CCCCC(S(C)(=O)=O)C1` (stereo not drawn) [2-E17, 1-(3-methanesulfonylazepan-1-yl)prop-2-en-1-one], the “% of control remaining” value came out at 110.357%. On to `O=C(CCl)NCCc1ccc(Cl)cc1Cl` [6-M16, 2-chloro-N-[2-(2,4-dichlorophenyl)ethyl]acetamide], for which the “% of control remaining” value is 93.9024%. Turning to `Cc1oc(C(=O)O)cc1C(=O)CCl` [10-M21, 4-(2-chloroacetyl)-5-methylfuran-2-carboxylic acid], the “% of control remaining” value was 105.625%. With `N#CC(=Cc1cccc(-c2ccncc2)c1)C(=O)NCc1ccco1` [9-B06, 2-cyano-N-[(furan-2-yl)methyl]-3-[3-(pyridin-4-yl)phenyl]prop-2-enamide] the figure was 73.7079%. Regarding `COc1ccccc1CN(C)C(=O)CCl` [6-C09, 2-chloro-N-[(2-methoxyphenyl)methyl]-N-methylacetamide], the “% of control remaining” value is 82.2927%. In the case of `CC(C)C(C(=O)O)N1C(=O)C=CC1=O` (stereo not drawn) [10-I22, 2-(2,5-dioxo-2,5-dihydro-1H-pyrrol-1-yl)-3-methylbutanoic acid], the “% of control remaining” value is reported as 115.625%. With `N#CC(=Cc1ccc(-c2ccc(F)cc2)o1)C(=O)NC1CCCCC1` [9-H17, 2-cyano-N-cyclohexyl-3-[5-(4-fluorophenyl)furan-2-yl]prop-2-enamide] the figure was 86.8914%; with `CC(=O)Nc1c(C)cc(C)c(C(=O)CCl)c1C` [10-A12, N-[3-(2-chloroacetyl)-2,4,6-trimethylphenyl]acetamide], 116.875%; with `CC(C)NC(=O)C(C#N)=Cc1ccc(-c2ccc([N+](=O)[O-])cc2)o1` [8-I19, 2-cyano-3-[5-(4-nitrophenyl)furan-2-yl]-N-(propan-2-yl)prop-2-enamide], 100.249%.

`C=CC(=O)NCc1ncnn1-c1ccccc1` [3-H11, N-[(1-phenyl-1H-1,2,4-triazol-5-yl)methyl]prop-2-enamide]: the “% of control remaining” value came to 105.877%.
